Measured values reported in the supplement of paper PMC3334620.
Whole data set: some 33,000 sequences, median “E-score (-0.5 to 0.5)” near -0.021, cut for the highest 2% near 0.32. The list shows a part of the results.

These sequences were tested against T1, Zap1 (UniProt P47043) (assay: PBM E-score (8-mer binding enrichment) (E-score (-0.5 to 0.5)); higher = stronger / more preferred TF binding; most listed sequences are background and not binding sites). Settings: protein concentration: 200 nM; construct: GST-full length.
T1 sequence: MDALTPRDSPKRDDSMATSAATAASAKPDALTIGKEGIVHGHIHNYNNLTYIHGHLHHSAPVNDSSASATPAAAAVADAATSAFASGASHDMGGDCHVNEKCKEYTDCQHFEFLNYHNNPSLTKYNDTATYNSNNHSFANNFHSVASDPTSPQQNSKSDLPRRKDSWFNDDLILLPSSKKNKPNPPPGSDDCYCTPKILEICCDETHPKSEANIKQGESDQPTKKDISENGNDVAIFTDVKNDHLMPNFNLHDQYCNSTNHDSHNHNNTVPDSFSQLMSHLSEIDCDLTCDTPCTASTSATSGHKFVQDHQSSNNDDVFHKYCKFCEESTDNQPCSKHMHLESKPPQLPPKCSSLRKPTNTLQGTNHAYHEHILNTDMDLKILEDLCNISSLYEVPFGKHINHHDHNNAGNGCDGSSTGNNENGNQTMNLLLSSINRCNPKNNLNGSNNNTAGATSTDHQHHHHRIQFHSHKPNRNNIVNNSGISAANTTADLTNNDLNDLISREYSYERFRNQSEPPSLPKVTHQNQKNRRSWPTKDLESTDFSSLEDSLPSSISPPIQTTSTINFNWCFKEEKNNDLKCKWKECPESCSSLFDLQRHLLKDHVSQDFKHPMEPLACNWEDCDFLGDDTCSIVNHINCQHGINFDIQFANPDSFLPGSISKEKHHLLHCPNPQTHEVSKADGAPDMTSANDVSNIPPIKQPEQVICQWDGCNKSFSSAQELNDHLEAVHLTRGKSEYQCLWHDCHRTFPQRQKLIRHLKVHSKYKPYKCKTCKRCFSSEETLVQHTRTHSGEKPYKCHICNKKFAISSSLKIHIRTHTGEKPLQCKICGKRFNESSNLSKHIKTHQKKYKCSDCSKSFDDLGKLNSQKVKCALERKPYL
Method in brief: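 Yeast transcription factors, full-length or as DNA-binding domains, were expressed with a GST tag using PURExpress in vitro transcription/translation. At about 100-200 nM they were applied to universal all-10-mer Agilent arrays, double-stranded by primer extension on fresh or once-stripped slides. Fluorescent anti-GST detected bound protein, and masliner normalised the scans. E-scores for ungapped eight-base words, pooled with reverse complements, came from the Universal PBM Analysis Suite.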
With CTGGGACC the “PBM E-score” value was -0.191. CCGCGATC was tested, and the “PBM E-score” value was 0.103. CATTCCAC was tested, and the “PBM E-score” value was -0.0174. AACCATAG was tested, and the “PBM E-score” value was 0.16. In the case of ACTGTGAC, the “PBM E-score” value is reported as 0.197. For GGCAAGCA, the “PBM E-score” value was -0.254. In the case of CTGCTCAA, the “PBM E-score” value is reported as -0.0635. In the case of AACTCCAG, the “PBM E-score” value is reported as -0.137. With GGCTTAGA the “PBM E-score” value was -0.11. For ATCCAAGG, the “PBM E-score” value was -0.0939. GGATGACA was tested, and the “PBM E-score” value was -0.154. ACAGTCGG was tested, and the “PBM E-score” value was 0.00691. In the case of CTTAGTTA, the “PBM E-score” value is reported as 0.0283. With TAACACGA the “PBM E-score” value was 0.0984. AGTCCTAA was tested, and the “PBM E-score” value was -0.012. TGGACTAA was tested, and the “PBM E-score” value was -0.111. With AGCAAAAA the “PBM E-score” value was 0.19. For ACACACGT, the “PBM E-score” value was -0.0511. In the case of CAATGTCA, the “PBM E-score” value is reported as 0.0332. ACTATCGG was tested, and the “PBM E-score” value was -0.122. In the case of CTTCCGTA, the “PBM E-score” value is reported as 0.033. In the case of ACGTAATC, the “PBM E-score” value is reported as 0.116. For CCGAGGCG, the “PBM E-score” value was 0.0801. In the case of TCACGGCA, the “PBM E-score” value is reported as -0.102. With ATGGATTC the “PBM E-score” value was -0.0696. In the case of AACCCCGG, the “PBM E-score” value is reported as 0.337. For ACCCCTGA, the “PBM E-score” value was 0.28. ACTCTGTG was tested, and the “PBM E-score” value was -0.132. In the case of CCACATCA, the “PBM E-score” value is reported as 0.039. With AAGGTCAT the “PBM E-score” value was 0.444. AAAAAAGT was tested, and the “PBM E-score” value was 0.159. With CTGTAACA the “PBM E-score” value was 0.00661. CGGTGCCC was tested, and the “PBM E-score” value was 0.0776. AATTGAGT was tested, and the “PBM E-score” value was 0.0567. In the case of GTCAGTGA, the “PBM E-score” value is reported as 0.143. For TCCGATCA, the “PBM E-score” value was 0.0772. For ACATATAT, the “PBM E-score” value was 0.0326. With ACGACGGC the “PBM E-score” value was -0.351. CACTACGG was tested, and the “PBM E-score” value was -0.0708. In the case of AGTGACGG, the “PBM E-score” value is reported as -0.00179. For ACTTTGCC, the “PBM E-score” value was -0.129. In the case of AGAGAAAA, the “PBM E-score” value is reported as 0.126. For GTATATAA, the “PBM E-score” value was 0.252. In the case of ATTGGACG, the “PBM E-score” value is reported as -0.134. For ATTTCGGC, the “PBM E-score” value was -0.0784. CCCTTTGC was tested, and the “PBM E-score” value was 0.206. With AGTGTTTA the “PBM E-score” value was 0.203. In the case of CAGCTGCC, the “PBM E-score” value is reported as -0.2. For AGCCAAGA, the “PBM E-score” value was -0.112. AACTTAGC was tested, and the “PBM E-score” value was -0.18. In the case of ACAATCCA, the “PBM E-score” value is reported as 0.0725. In the case of AGATAAAG, the “PBM E-score” value is reported as -0.0279. With GGATTGCC the “PBM E-score” value was -0.235. With ATTTAAAT the “PBM E-score” value was 0.0468. With ACACGAGC the “PBM E-score” value was -0.14. With ATGACTCG the “PBM E-score” value was -0.115. In the case of CAAGCATG, the “PBM E-score” value is reported as -0.107. ACCTTAAT was tested, and the “PBM E-score” value was 0.302. In the case of CAATTCAA, the “PBM E-score” value is reported as -0.0242. AATCGGGC was tested, and the “PBM E-score” value was -0.0801. CATTCGCG was tested, and the “PBM E-score” value was 0.00569. CGACGGGC was tested, and the “PBM E-score” value was -0.0628. For CTAACGGC, the “PBM E-score” value was -0.0798. For AGAGGCAT, the “PBM E-score” value was -0.0756. For AGACATAC, the “PBM E-score” value was -0.0158. In the case of CGGATTTA, the “PBM E-score” value is reported as -0.0245. With CCAGCAAC the “PBM E-score” value was 0.0673. ATGCATCG was tested, and the “PBM E-score” value was 0.00143. AAAGAGAC was tested, and the “PBM E-score” value was 0.0611. GAATGTTA was tested, and the “PBM E-score” value was 0.0425. In the case of AGTGTGAA, the “PBM E-score” value is reported as -0.13. With AGCGTCCG the “PBM E-score” value was -0.24. For AATTTAGG, the “PBM E-score” value was 0.145. For ACGGCGAC, the “PBM E-score” value was 0.0079. In the case of ACTCCGGC, the “PBM E-score” value is reported as -0.151. GATGCTAA was tested, and the “PBM E-score” value was -0.0599. For AAGCATAA, the “PBM E-score” value was 0.0593. In the case of GACAACTA, the “PBM E-score” value is reported as 0.0846. ATCGTAGC was tested, and the “PBM E-score” value was -0.257. With GATTGGCA the “PBM E-score” value was -0.0646. With GCCCTCGA the “PBM E-score” value was -0.145. With CGTAGGCC the “PBM E-score” value was -0.177. With AGCGTATC the “PBM E-score” value was -0.252. For AGCTAGAC, the “PBM E-score” value was -0.257. For ACGAGCCT, the “PBM E-score” value was -0.253. With ACCAGCAA the “PBM E-score” value was 0.26.
